# Experimental data taken from PMC12136788.
# Some of the results follow.
# T1: UNK ZnF1-3 (human, UniProt Q9C0B0 31-174)
# T1 sequence: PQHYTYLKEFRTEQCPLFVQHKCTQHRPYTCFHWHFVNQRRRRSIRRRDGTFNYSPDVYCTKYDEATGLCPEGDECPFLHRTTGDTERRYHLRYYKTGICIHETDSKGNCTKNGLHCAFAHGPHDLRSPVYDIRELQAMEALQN
# B1: chr3:123074269:123074270:-_ENSMUSG00000028114_ENSMUST00000029759|perfect_dup|motif|central (ssRNA)
# RNA: GGGAGUUCUACAGUCCGACGAUCGCGUCUUCUACCAAGACAAAAAUGUUCUAUUAUAUGAAAAAUUUCUACUGGUUUUUCGGUAUUGCCAAUCUCAGGUUCUUCUGUGAUAAUUAAGUCAAUGUCAACAUUAGCAUGAAUGAACAACAGAGGAUUGAGCAUCA
# B2: chr22:19452774:19452775:-_ENSG00000070010_ENST00000399523|hu_hu|hu_hu_hu_mus_False|48_78 (ssRNA)
# RNA: GGGAGUUCUACAGUCCGACGAUCCUUCUCAUUGUAGUUGAUAGCAAUCACAUCUCCGGUGGUCAGACAGGCGAAGUUUCUCAAUGCGUUUUCUAAUACCGCUUUAGGGUUGGUAAUAUCCAGGAAGUCUGGGCUCUGAGGCUGCAACAGAGGAUUGAGCAUCA
# B3: chr7:878492:878493:+_ENSG00000164828_ENST00000456758|hu_hu|FALSE|FALSE (ssRNA)
# RNA: GGGAGUUCUACAGUCCGACGAUCGUCGGCACCCACAGCCUCACCAUCCCCCAGGGUGCAUGCUGUCGUGGCCAGGCGCAAACUACGGCGGGACAUCCGUGGAGAAUCAAAUACAGGGUCCAAUUUGUGCUCCGUCUCAAAAUCCAACAGAGGAUUGAGCAUCA
# B4: chr1:66463027:66463028:+_ENSMUSG00000015222_ENSMUST00000114013|mus_mus|mus_mus_mus_hu_True|18_28 (ssRNA)
# RNA: GGGAGUUCUACAGUCCGACGAUCUUUUCUUUCAGGAGUGGAAAUUCUGCCUCUCCCGGUUUUAAAAGGCUUUUCUUUUCUAUGUUUCUCAAGAGAUGAUCUCCGAGCAUCCUUCUCAGCUCUCUCCUCUUUAGGAAUAGUUUCCAACAGAGGAUUGAGCAUCA
# B5: chr4:148551591:148551592:-_ENSMUSG00000063077_ENSMUST00000060537|mus_hu|mus_mus_mus_hu_False|18_18 (ssRNA)
# RNA: GGGAGUUCUACAGUCCGACGAUCACCUGACAAAAUUAAAUAUCCCUGUAAAUUAGACAAUAAGCAGCAGGCAACAAAGUCUUUGCUUUGGAAUAUGUGCCAGGAAAAGUCAUCUUGUAGACCCCAAUCAAGAGACAGUUCACACAACAGAGGAUUGAGCAUCA
# B6: chr3:32582686:32582687:-_ENSG00000144635_ENST00000273130|hu_mus|motif|central (ssRNA)
# RNA: GGGAGUUCUACAGUCCGACGAUCUCGCUGAGGGGAGGCUGGGAAGUCUUCUCCUGGCUCCACGUACUCUUGGAAGUCUCGGAUCAACUUCUGCUCCAUUUCCUUCAUCUCUUCAGGGGGGAUUUUCAGCUUGUCGACAUGUUCCAACAGAGGAUUGAGCAUCA
# B7: 204320180_204320300_1521_CDS_ENSG00000173166_ENST00000319170|human|control|control (ssRNA)
# RNA: GGGAGUUCUACAGUCCGACGAUCAUAGUAGAUACCAGAUGCUCGCAAGAGAAAAUAACGCUUUUUCCAGGACUUCUUGCCAUCAUCCUUCAACCAAAGGACUCCUUCAAUUUCUGGUACAGUUACAGAACUUCCACAAAAACACAACAGAGGAUUGAGCAUCA
# B8: chr17:3197573:3197574:+_ENSMUSG00000046201_ENSMUST00000076734|mus_mus|motif|central (ssRNA)
# RNA: GGGAGUUCUACAGUCCGACGAUCCCUCACAAGAUUCUCCCUCAUGUCCACAGGAGGUCUUCCAAAAUGAUCCCUAGCAUCGGAUGGAGGCCUUCCAGGGCCUUCUCUGGGAUCUAGACGUCGCCCAACCACAUCCCUAACAUCCAACAGAGGAUUGAGCAUCA
# B9: chr11:77340908:77340909:-_ENSG00000074201_ENST00000525064|hu_mus|motif|central (ssRNA)
# RNA: GGGAGUUCUACAGUCCGACGAUCGUUUGGAUCCCUGGACACCGCAUGUAAACUAAUGGUGGGGUAUUCCAGUGAGAAUCCGGAUCCCGAACCAUCUAACCAGGACAGGCGGCUCUCCGCGAUGUAAAGCGUGCCGGUGCCGAGCAACAGAGGAUUGAGCAUCA
# B10: chr11:77843920:77843921:+_ENSMUSG00000037791_ENSMUST00000049167|mus_hu|motif|central (ssRNA)
# RNA: GGGAGUUCUACAGUCCGACGAUCUUUUUUAUAUACAGAAUACAGGAAAGUUUCUGUAAAGUCUAAAACAUUACAAUUACGGUGUACAUUGGUACUGGUUGUGGGGGUGGGAGGAGAGGAGGGAACCAGGGGCAGGAGGAAGAGCAACAGAGGAUUGAGCAUCA
# B11: chr5:108714765:108714766:-_ENSG00000198961_ENST00000361557|hu_hu|motif|central (ssRNA)
# RNA: GGGAGUUCUACAGUCCGACGAUCACAAGCUCCUGGAAUAUACUCUCCCUCAGAGUGAUUAUGAAGAUUUGUACUGCUUCCGGAGGUAUCCCUGCCUUCCUCACUGUGAUGUACUGCAACAAAGGAUUGACUGCUCUCAGUGGUCAACAGAGGAUUGAGCAUCA
# B12: chr3:10015032:10015033:+_ENSMUSG00000027533_ENSMUST00000029046|mus_mus|mus_mus_mus_hu_True|68_78 (ssRNA)
# RNA: GGGAGUUCUACAGUCCGACGAUCGUUUUUACCAUCACAAGUGAUGAUACAAUCUGGCUUGGCCAUGGCAGCCAUCUUUCGCAAAGCUAUUCCCACUCCUAGCUCCUUCAUGUAUUCAUCAAAGCCUUUGCUGUCCACCAGGCGCAACAGAGGAUUGAGCAUCA
# B13: 30141188_30141308_626_CDS_ENSMUSG00000075419_ENSMUST00000100219|mouse|control|control (ssRNA)
# RNA: GGGAGUUCUACAGUCCGACGAUCGAGGGCCACUGCCAUGCCAGUAGCUGCAACCACAAUGCCGAAGCGCUCGAAGUAUGGGUUCCCUGCAGUCUGGCAGCGCUCCUUCAUGACUAGCCCAAGCAAAGGCAUGACCAUGGAGGCCAACAGAGGAUUGAGCAUCA
# B14: chr7:44244176:44244177:+_ENSG00000106636_ENST00000223369|hu_mus|hu_hu_hu_mus_False|18_38 (ssRNA)
# RNA: GGGAGUUCUACAGUCCGACGAUCACUGUCGCUCCGGACGUAGACAUGGCAAAGAUACUCUUGUUCUUUGACAGAAGCUCUGCUGCCUUUCCCCGAGCGCUCCACAAUCAGUUGACUCGUGAAGGUCAUGAAUUCCUGCACACUCAACAGAGGAUUGAGCAUCA
# Molecular target: T1, UNK ZnF1-3
# Experiment: nsRBNS (natural sequence RNA bind-n-seq); RBNS binding buffer (assumed for nsRBNS): 25 mM Tris pH 7.5, 150 mM KCl, 3 mM MgCl2, 0.01% Triton X-100, 500 ug/ml BSA, 20 U/ml SUPERase-In, 4 C; UNK is unkempt and MSI1 is Musashi-1; names of the RNAs are library labels; protein concentration not given here; high values mean tight binding
row,Binder,binding signal
1,B1,1.08 enrichment R
2,B2,0.947 enrichment R
3,B3,1.07 enrichment R
4,B4,0.525 enrichment R
5,B5,1.71 enrichment R
6,B6,0.426 enrichment R
7,B7,1.26 enrichment R
8,B8,0.898 enrichment R
9,B9,0.596 enrichment R
10,B10,1.66 enrichment R
11,B11,2.2 enrichment R
12,B12,0.783 enrichment R
13,B13,0.862 enrichment R
14,B14,0.631 enrichment R
